# Laboratory results as given in the supplement of paper PMC11283458.
# The list shows a part of the results. Most values come without repeats; read them as rough.
# Tests used:
# [1] = system: Mef2d microexon dual Nano/Firefly luciferase splicing reporter in Neuro-2a cells; test: B-score of Firefly/Nano luminescence ratio, V1 Mef2d microexon reporter (B-score (plate-normalised)); higher = more Mef2d microexon inclusion; conditions: 24 h
# [2] = system: Mef2d microexon dual Nano/Firefly luciferase splicing reporter in Neuro-2a cells; test: B-score of Nano/Firefly luminescence ratio, V2 Mef2d microexon reporter (B-score (plate-normalised)); higher = more Mef2d microexon inclusion; conditions: 24 h
# 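Wherever B-score of Nano/Firefly luminescence ratio, V2 Mef2d microexon reporter is given: compounds at 4 µM (PKI library 0.5 µM) on Dox-inducible N2A Flp-In cells with PEST-tagged luciferases, 384-well plates, B-score from per-plate median-polish residual over median absolute residual.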
Structure (SMILES),B-score [1],B-score [2]
Cn1c(=O)c(C(N)=NOC(=O)c2ccc(Cl)cc2)cn(-c2ccccc2)c1=O (4 µM),7.56,2.44
CCCCCCCC/C=C\CCCCCCCC(=O)NCCc1ccc(O)c(O)c1 [N-Oleoyldopamine] (4 µM),5.1,3.65
COc1ccccc1C1CCN(c2ccc(C=CC(=O)NCc3ccccc3)cc2[N+](=O)[O-])CC1 (4 µM),4.14,1.74
COc1nc(Nc2nc3ccccc3c(=O)[nH]2)nc2ccc(C)cc12 (4 µM),67.2,8.01
S=C(S)N1CCCC1 [Ammonium pyrrolidinedithiocarbamate] (4 µM),3.67,37.4
Cc1onc(-c2ccccc2)c1C(=O)ON=C(Cc1ccccc1)Cc1ccccc1 (4 µM),8.36,3.19
COc1cc2ncn(-c3cc(OCc4ccccc4C(F)(F)F)c(C(N)=O)s3)c2cc1OC (4 µM),-9.11,-6.52
CC(C)(C)c1cc2nc(C(F)(F)F)cc(N3CCN(C(=O)Nc4ccccc4)CC3)n2n1 (4 µM),2.36,4.14
O=C(Nc1ncc(-c2cc(C(F)F)nn2-c2c(Cl)cccc2Cl)s1)C1CC1 (0.5 µM),-4.32,-4.89
CCN(CC)C(=S)NC(=S)c1ccc(C)cc1 (4 µM),-0.337,34.8
Oc1nc2ccccc2nc1-c1c[nH]c2ccccc12 (4 µM),9.44,1.5
O=C1CSC(c2cccnc2)N1c1ccccc1 (stereo unspecified) (4 µM),9.44,14.6
COC(=O)C1C(C(=O)OC)C2(OC(c3ccccc3)=CC2=O)C12OC(c1ccccc1)=CC2=O (stereo unspecified) (4 µM),5.48,5.99
